{"source": "PubChem BioAssay (Tox21)", "key": {"[1]": {"test": "qHTS assay to identify small molecule agonists of the constitutive androstane receptor (CAR) signaling pathway - cell viability counter screen (AID 1224836); note: nearly all actives have a fitted effect of over 45% in size; note: potency is the fitted concentration of half-maximal effect", "in_short": "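Multiplexed viability check: HepG2-CYP2B6-hCAR cells, 15-point compound dosing, 0.75 uM PK11195 final, 23 h at 37 C, CellTiter-Fluor fluorescence.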"}, "[2]": {"test": "qHTS assay to identify small molecule antagonists of the constitutive androstane receptor (CAR) signaling pathway - cell viability counter screen (AID 1224837); note: nearly all actives have a fitted effect of over 45% in size; note: potency is the fitted concentration of half-maximal effect", "in_short": "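HepG2 cells stably carrying hCAR and CYP2B6-2.2kb reporter, stimulated with 50 nM CITCO and compounds at 15 concentrations for 23 h at 37 C. Viability measured by CellTiter-Fluor fluorescence.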"}, "[3]": {"test": "qHTS assay to identify small molecule agonists of the hypoxia (HIF-1) signaling pathway - cell viability counter screen (AID 1224844; calls by dose curve; note: potency is the fitted concentration of half-maximal effect; nearly all actives have a fitted effect of over 50% in size)", "in_short": "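HRE-bla ME-180 cells, 2,000/well in 0.5% dialyzed FBS medium, treated 17 h at 37C with compounds. Viability read in the same wells as the bla reporter, by CellTiter-Glo luminescence after 30 min at room temperature.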"}, "[4]": {"test": "qHTS assay to identify small molecule agonists of the hypoxia (HIF-1) signaling pathway (AID 1224846; active = well fitted activation curve with a large enough effect in the signal ratio in the repeat runs, not every such curve was filed as active; inconclusive = weak or mixed curves; the % refers to the signal ratio; note: potency is the fitted concentration of half-maximal effect; for activation: % is set by controls: 0 for no effect and ±100 for the full control effect)", "settings": "HRE-bla ME-180 cells, beta-lactamase ratio, 17 h; activation: at 76.8 µM (top of the series) unless noted", "in_short": "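HRE-bla ME-180 beta-lactamase reporter cells in medium with 0.5% dialyzed FBS, pre-incubated 5 h then exposed to compounds 17 h at 37C, 5% CO2; reporter induction read with CCF4-AM FRET substrate.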"}, "[5]": {"test": "qHTS assay to identify small molecule agonists of H2AX - cell viability counter screen (AID 1224847; calls by dose curve; note: potency is the fitted concentration of half-maximal effect; nearly all actives have a fitted effect of over 30% in size)", "in_short": "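After overnight plating of 1000 CHO-K1 cells per well, a 15-concentration compound series was applied for 3 hr at 37C. Luminescence from CellTiter-Glo, read following 30 min at room temperature, reflected cell viability.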"}, "[6]": {"test": "qHTS assay to identify small molecule antagonists of the estrogen related receptor signaling pathway with the pleiotropic PPARgamma coactivator (PGC) from Tox21 10K library - cell viability counter screen (AID 1224840; active = well fitted cell-killing curve with a large enough effect in the repeat runs, not every such curve was filed as active; inconclusive = weak or mixed curves, or effect the other way; inactive = no such curve, though single readings can be large or run the other way; note: nearly all actives have a fitted effect of over 40% in size; note: potency is the fitted concentration of half-maximal effect)", "in_short": "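PGC/ERR cells (2,000/well) plated 6 h, then compound-treated for 17.5 h at 37 C. Viability measured by CellTiter-Fluor fluorescence after 30 min at 37 C, multiplexed with the pathway assay.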"}, "[7]": {"test": "qHTS RealTime-Glo MT Cell Viability Assay in HEK293 cells - 32 hour (AID 1224868); note: potency is the fitted concentration of half-maximal effect; nearly all actives have a fitted effect of over 50% in size", "in_short": "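Luminescence generated by NanoLuc from substrate produced by living HEK293 cells served as the viability signal. Each value reflects the reading at its stated time point during continuous 40 h compound exposure at 37 C.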"}, "[8]": {"test": "qHTS assay to identify small molecule agonists of H2AX (AID 1224845; active = well fitted activation curve with a large enough effect in the signal ratio in the repeat runs, not every such curve was filed as active; inconclusive = weak or mixed curves; the % refers to the signal ratio; note: potency is the fitted concentration of half-maximal effect; for activation (H2AX phosphorylation): % is set by controls: 0 for no effect and ±100 for the full control effect)", "settings": "CHO-K1 phospho-H2AX Ser139 HTRF, 3 h; activation (H2AX phosphorylation): at 154 µM (top of the series) unless noted", "in_short": "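Phospho-H2AX Ser139 measured by HTRF (ex 320 nm; em 665 and 620 nm) after 24 hr antibody incubation. Compounds, 15 concentrations, 0.76% DMSO, were applied to CHO-K1 cells for 3hr at 37C before lysis.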"}, "[9]": {"test": "qHTS RealTime-Glo MT Cell Viability Assay in HepG2 cells - 24 hour (AID 1224867); note: potency is the fitted concentration of half-maximal effect; nearly all actives have a fitted effect of over 50% in size", "in_short": "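Tox21 10K library screened in qHTS format on HepG2 cells carrying RealTime-Glo reagents. Compounds were added after a 5 h preincubation, and the luminescent signal from continuous culture was measured repeatedly during 40 h treatment.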"}, "[10]": {"biological_target": "Nuclear receptor subfamily 1 group I member 3 (Homo sapiens) (UniProt Q14994)", "sequence (Q14994 whole entry, looked up)": "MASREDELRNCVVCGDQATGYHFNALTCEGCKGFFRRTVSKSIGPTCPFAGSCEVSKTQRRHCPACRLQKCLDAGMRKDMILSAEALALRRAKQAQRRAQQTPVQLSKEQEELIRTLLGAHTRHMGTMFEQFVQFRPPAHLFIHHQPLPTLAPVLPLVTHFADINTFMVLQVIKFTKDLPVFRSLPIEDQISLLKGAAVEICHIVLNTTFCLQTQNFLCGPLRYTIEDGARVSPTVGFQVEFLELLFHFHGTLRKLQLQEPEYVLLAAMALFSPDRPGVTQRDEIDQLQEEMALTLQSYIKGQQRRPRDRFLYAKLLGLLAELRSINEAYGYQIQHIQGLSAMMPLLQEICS", "test": "qHTS assay to identify small molecule agonists of the constitutive androstane receptor (CAR) signaling pathway (AID 1224839); note: potency is the fitted concentration of half-maximal effect; nearly all actives have a fitted effect of over 15% in size", "in_short": "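Using human hepatoma HepG2 cells engineered with hCAR and a CYP2B6-2.2kb reporter, 15-concentration compound series were incubated 24 h alongside PK11195 at 0.75 uM final, with luminescence quantified afterwards.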"}, "[11]": {"test": "qHTS assay to identify small molecule agonists of the estrogen related receptor signaling pathway with the pleiotropic PPARgamma coactivator (PGC) from Tox21 10K library (AID 1224842); note: potency is the fitted concentration of half-maximal effect; nearly all actives have a fitted effect of over 15% in size", "in_short": "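Luminescence from One-Glo (30 min, room temperature) measured after PGC/ERR cells had 18 h at 37 C with pinned compound (23 nL in DMSO). Cells had been seeded at 2,000 per well and pre-incubated 6 h.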"}, "[12]": {"test": "qHTS assay to identify small molecule antagonists of the estrogen related receptor (ERR) signaling pathway from Tox21 library (AID 1224848); note: nearly all actives have a fitted effect of over 50% in size; note: potency is the fitted concentration of half-maximal effect", "in_short": "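Antagonist-mode screen of the Tox21 10K library in an NTP-provided ERR reporter cell line; 18 h compound exposure at 37 C, luminescence measured with ONE-Glo.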"}, "[13]": {"test": "qHTS assay to identify small molecule agonists of the estrogen related receptor (ERR) signaling pathway from Tox21 library (AID 1224849; calls by dose curve; note: % is set by controls: 0 for no effect and ±100 for the full control effect; nearly all actives have a fitted effect of over 15% in size)", "settings": "ERR reporter cell line, ONE-Glo luciferase, 18 h; at 92.4 µM (top of the series) unless noted", "in_short": "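ERR reporter cells (NTP line) pre-incubated 6 hours at 37 C, then exposed to compounds for 18 hours at 37 C. ONE-Glo luciferase luminescence was read after 30 minutes at room temperature.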"}}, "note": "Where “and” joins values, the source holds several entries; their conditions need not be identical. Equal values may be shown once. This list was built around the results that the source calls inconclusive (neither active nor inactive); the mix of calls is not that of the screen. For some assays here: Potencies beside an inconclusive call are fits to weak or partial responses and may not hold up. Calls of active or inactive are those of the source. Unless noted, calls come from the whole dose curve; as a rule, active = well fitted curve in the direction sought with a large enough effect in the repeat runs; inconclusive = weak or mixed curves; inactive = no such curve, though single readings can be large; an effect the other way counts as inactive or inconclusive. Tags give direction and shape of the fitted curve or compound fluorescence and quenching.", "data": [{"smiles": "Oc1ccc(Cl)cc1Sc1cc(Cl)ccc1O", "values": [{"measurement": "Potency", "setting": "[1]", "value": "inconclusive: 76.8 µM [cytotoxic, single point] and inconclusive: 33.5 µM [cytotoxic, single point]"}, {"measurement": "Potency", "setting": "[2]", "value": "inconclusive: 68.5 µM [cytotoxic, single point] and inconclusive: 33.5 µM [cytotoxic, single point]"}, {"measurement": "Potency", "setting": "[3]", "value": "inconclusive: 54.8 µM [cytotoxic, single point]"}, {"measurement": "Potency", "setting": "[4]", "value": "inconclusive: 54.8 µM and inconclusive: 26.8 µM [single point]"}, {"measurement": "Potency", "setting": "[5]", "value": "active: 35.7 µM and inconclusive: 43.8 µM [cytotoxic, partial curve]"}]}, {"smiles": "Nc1ncn([C@@H]2O[C@H](CO)[C@@H](O)[C@H]2O)c(=O)n1", "values": [{"measurement": "Potency", "setting": "[1]", "value": "inconclusive: 30.6 µM [cytotoxic, partial curve] and active: 5.96 µM"}, {"measurement": "Potency", "setting": "[2]", "value": "active: 4.86 µM and inconclusive: 3.76 µM [cytotoxic, full curve]"}, {"measurement": "Potency", "setting": "[6]", "value": "inconclusive: 4.33 µM [cytotoxic, partial curve, poor fit]"}, {"measurement": "Potency", "setting": "[3]", "value": "active: 13.8 µM and inconclusive: 21.3 µM [cytotoxic, partial curve]"}, {"measurement": "Potency", "setting": "[7]", "value": "inconclusive: 38.9 µM [cytotoxic, partial curve, poor fit]"}]}, {"smiles": "O=S(=O)(O)c1ccccc1/C=C/c1ccc(-c2ccc(/C=C/c3ccccc3S(=O)(=O)O)cc2)cc1", "values": [{"measurement": "Potency", "setting": "[1]", "value": "inconclusive: 49.2 µM"}, {"measurement": "Potency", "setting": "[2]", "value": "inconclusive: 49.2 µM"}, {"measurement": "Potency", "setting": "[8]", "value": "inconclusive: 45.6 µM [fluorescent, partial curve]"}, {"measurement": "Potency", "setting": "[4]", "value": "active: 39.4 µM"}]}, {"smiles": "COCC(=O)O[C@]1(CCN(C)CCCc2nc3ccccc3[nH]2)CCc2cc(F)ccc2[C@@H]1C(C)C", "values": [{"measurement": "Potency", "setting": "[1]", "value": "inconclusive: 33.5 µM [cytotoxic, single point]"}, {"measurement": "Potency", "setting": "[2]", "value": "active: 29.8 µM"}, {"measurement": "Potency", "setting": "[3]", "value": "active: 16.9 µM"}, {"measurement": "Potency", "setting": "[8]", "value": "active: 49.2 µM"}, {"measurement": "Potency", "setting": "[4]", "value": "inconclusive: 26.8 µM [falling, partial curve, poor fit]"}, {"measurement": "Potency", "setting": "[5]", "value": "inconclusive: 55.2 µM [cytotoxic, single point]"}, {"measurement": "Potency", "setting": "[9]", "value": "active: 13.4 µM"}]}, {"smiles": "Cc1cccc(C)c1NC(=O)CN1CCN(CCCC(c2ccc(F)cc2)c2ccc(F)cc2)CC1", "values": [{"measurement": "Potency", "setting": "[1]", "value": "active: 23.7 µM"}, {"measurement": "Potency", "setting": "[2]", "value": "active: 23.7 µM"}, {"measurement": "Potency", "setting": "[3]", "value": "inconclusive: 26.8 µM [cytotoxic]"}, {"measurement": "Potency", "setting": "[8]", "value": "inconclusive: 55.2 µM [activator, single point]"}, {"measurement": "Potency", "setting": "[5]", "value": "inconclusive: 61.9 µM [cytotoxic, single point]"}, {"measurement": "Potency", "setting": "[7]", "value": "active: 9.52 µM"}]}, {"smiles": "CCC(=O)O[C@]1(C(=O)SCF)[C@H](C)C[C@H]2[C@@H]3C[C@H](F)C4=CC(=O)C=C[C@]4(C)[C@@]3(F)[C@@H](O)C[C@@]21C", "values": [{"measurement": "Potency", "setting": "[1]", "value": "inconclusive: 13.3 µM [rising, single point]"}, {"measurement": "Potency", "setting": "[10]", "value": "inconclusive: 11.9 µM [activator, single point]"}, {"measurement": "Potency", "setting": "[6]", "value": "inactive"}, {"measurement": "Potency", "setting": "[11]", "value": "inconclusive: 33.5 µM [activator, single point]"}, {"measurement": "Potency", "setting": "[12]", "value": "inactive"}]}, {"smiles": "C[C@@H](CN(C)C)CN1c2ccccc2Sc2ccccc21", "values": [{"measurement": "Potency", "setting": "[1]", "value": "inconclusive: 33.5 µM [cytotoxic]"}, {"measurement": "Potency", "setting": "[2]", "value": "inconclusive: 26.6 µM [cytotoxic]"}, {"measurement": "Potency", "setting": "[3]", "value": "active: 19 µM"}, {"measurement": "Potency", "setting": "[8]", "value": "inactive"}, {"measurement": "Potency", "setting": "[4]", "value": "inactive"}, {"measurement": "Potency", "setting": "[12]", "value": "inconclusive: 33.5 µM [inhibitor, single point]"}, {"measurement": "Potency", "setting": "[9]", "value": "inconclusive: 23.9 µM [falling, partial curve]"}]}, {"smiles": "Nc1ncnc2c1ncn2[C@@H]1O[C@H](CO)[C@@H](O)[C@H]1O", "values": [{"measurement": "Potency", "setting": "[1]", "value": "inactive"}, {"measurement": "Potency", "setting": "[2]", "value": "inactive"}, {"measurement": "Potency", "setting": "[8]", "value": "active: 31 µM"}]}, {"smiles": "O=C(O)c1cc(N=Nc2ccc([N+](=O)[O-])cc2)ccc1O", "values": [{"measurement": "Potency", "setting": "[1]", "value": "inconclusive: 53.5 µM [cytotoxic, partial curve]"}, {"measurement": "Potency", "setting": "[2]", "value": "inconclusive: 37.9 µM [cytotoxic, partial curve]"}, {"measurement": "Potency", "setting": "[8]", "value": "inconclusive: 88.1 µM [falling, partial curve]"}, {"measurement": "activity change, positive = activation", "setting": "[13]", "value": "active: 93.2%"}]}, {"smiles": "Cc1cccc2c1cc1ccc3cccc4ccc2c1c34", "values": [{"measurement": "Potency", "setting": "[1]", "value": "inconclusive: 49.7 µM [rising, partial curve]"}, {"measurement": "Potency", "setting": "[2]", "value": "inconclusive: 35.2 µM [rising, partial curve]"}, {"measurement": "Potency", "setting": "[4]", "value": "inconclusive: 25.1 µM [fluorescent, partial curve]"}, {"measurement": "Potency", "setting": "[7]", "value": "inconclusive: 63.1 µM [rising, single point]"}]}]}
